Experimental findings from ChEMBL document CHEMBL4888484, “Replenishing the malaria drug discovery pipeline: Screening and hit evaluation of the MMV Hit Generation Library 1 (HGL1) against asexual blood stage Plasmodium falciparum ,using a nano luciferase reporter read-out” (2022) are described below.

Molecules are shown by their SMILES. Among all 150,000 compounds or so, about 540 (0.36%) showed an effect of 50% or more. This is one part of the list.

In the experiment the test system is Plasmodium falciparum. In words: Primary screen in NF54 nanoGlo assay, in single point, at 2uM, 72h; a lower Z score goes with more inhibition. Type of experiment: functional, Erythrocyte. Particulars: timepoint 72 hour.
Broadly, the % Inhibition is the relative decrease from the control value, in per cent. Turning to `O=C(NCc1ccccn1)C1(c2ccc3c(c2)OCO3)CCCCC1`, the “% Inhibition” value is -6% and the Z score was determined as 1.01.
For `CCc1ccc(NC(=O)Cn2ccn3nc4c(c3c2=O)CCCCC4)cc1` the same measures were -16% and 2.03.
For `O=C(Nc1cccc(Cl)c1)Nc1c(-c2cccnc2)[nH]c2ccccc12` the same measures were 3% and -0.44.
Regarding `CN(C)[C@@H]1C[C@@H](C(=O)O)N(C(=O)CCCc2ccccc2)C1`, the “% Inhibition” value is recorded as -4% and the Z score turned out to be 0.43.
With `Cc1cccnc1-c1cccc(-c2ccn(CCN3C[C@H]4CC[C@H]3C4)n2)c1`, the “% Inhibition” value turned out to be 3% and the Z score is -0.39.
With `O=C(C1CC1c1ccccc1)N1CCN(c2nc3cccnc3o2)CC1` (stereo unspecified), the “% Inhibition” value was -10% and the Z score was determined as 0.98.
Regarding `COCC(=O)N1CC[C@H]2CC(=O)Nc3cccnc3OCC[C@H]2C1`, the “% Inhibition” value is given as -11% and the Z score came to 1.74.
The like results for `C[C@@H]1CN(C(=O)Cc2ccc3c(c2)CCCO3)CC[C@@H]1C(=O)O` were, in that order, 5% and -1.03.
For `CCc1nc(CC(=O)Nc2ncn(-c3ccccn3)n2)cs1` the same measures were -15% and 1.5.
For `CN1CCOc2ccc(NC(=O)NCCOCC(F)F)cc21` the same measures were -9% and 0.94.
`CC(C)CC[C@H](C)NC(=O)Cn1ccnc1`: the “% Inhibition” value was -9% and the Z score stood at 1.26.
`COc1ncccc1CNCc1ccc2c(c1)OCCO2`: the “% Inhibition” value is 3% and the Z score is -0.45.
For `C[C@H]1CN(C(=O)c2cc(=O)[nH]c(C3CC3)n2)Cc2ccccc2O1` the same measures were -11% and 1.37.
For `Cc1cccnc1[C@@H](NC(=O)CNC(=O)N(C)C)C1CC1`, the “% Inhibition” value is listed as -2% and the Z score is reported as 0.38.
The like results for `COC[C@H](Cc1ccccc1)N(C)CC(=O)NCc1ccccc1` were, in that order, -13% and 1.35.
The like results for `CCn1cc(-c2noc(CNC(C)=O)n2)cn1` were, in that order, -14% and 1.74.
As to `CCOc1cccnc1C(=O)NCc1nc(-c2ccco2)n[nH]1`, the “% Inhibition” value was -18% and the Z score is given as 3.41.
The like results for `O=C(C1CC=CC1)N1CC(CC(F)F)C1` were, in that order, 0% and 0.03.
For `O=C(c1cnc2c(cnn2C2CCCCC2)c1)c1ccccc1O` the same measures were -4% and 0.84.
For `CN(C)c1ccc(NS(=O)(=O)c2c(F)cccc2F)cn1` the same measures were 2% and -0.43.
As for `Cc1noc(C)c1NC(=O)C[C@H]1CCCc2ccccc21`, the “% Inhibition” value amounted to 0% and the Z score is -0.06.
For `CCOC(=O)c1coc(N(C)C(=O)Cc2ccc(C)c(C)c2)n1` the same measures were -8% and 1.5.
The like results for `Nc1n[nH]c2ccc(-c3cccc(C(=O)N4C[C@H]5CC=CC[C@H]5C4)c3)cc12` were, in that order, -12% and 1.55.
With `COc1cccc(C(=O)Nc2nc(-c3ccc(C)s3)ns2)c1`, the “% Inhibition” value was -3% and the Z score was found to be 0.46.
The like results for `CCN(Cc1noc(C2CCC2)n1)C(=O)Cn1ccnc1` were, in that order, 1% and -0.09.
Turning to `Cn1cc(-c2noc(CNC(=O)c3ccco3)n2)cn1`, the “% Inhibition” value is given as -17% and the Z score was 2.12.
The like results for `Cc1ccc(CN(C[C@H](O)COC(C)C)C(C)C)c(C)c1` were, in that order, 5% and -0.81.
For `COc1ccc(OC)c(-c2[nH]c3ccccc3c2[C@@H]2CCC(=O)N2CCCOC(C)C)c1`, the “% Inhibition” value is listed as -16% and the Z score came out at 1.84.
`Cc1noc(C)c1C(=O)N1CC[C@H](c2ccsc2)C1`: the “% Inhibition” value was -11% and the Z score was 2.05.
The like results for `CN(C(=O)Cn1ccc2ccccc21)c1ccc(-c2ccccc2)nn1` were, in that order, 33% and -3.74.
Turning to `CC(C)NC[C@H](CCO)c1ccccc1`, the “% Inhibition” value is given as -12% and the Z score was found to be 1.2.
For `O=S(=O)(NCC1CCCCC1)C1CCCCC1` the same measures were 3% and -0.56.
In the case of `OC1CCN(c2ccnc(NCc3ccc4[nH]c5c(c4c3)CCCC5)n2)CC1`, the “% Inhibition” value is given as -6% and the Z score is reported as 0.82.
Consider `CCN(CC)S(=O)(=O)N1CC(c2ccccn2)C1`, for which the “% Inhibition” value stood at 1% and the Z score is reported as -0.12.
On to `CN(C)[C@H]1CCCCN(c2nc3ccccc3s2)C1`, for which the “% Inhibition” value is -4% and the Z score was determined as 0.73.
For `CCOCCCC(=O)NCc1cncc(F)c1` the same measures were -4% and 0.67.
For `COc1ccc(CN2[C@@H]3CN(C(=O)c4c(F)cccc4F)C[C@@H]3OCCS2(=O)=O)cc1` the same measures were -15% and 2.38.
As for `Cc1c(Cl)c(C(=O)NCCc2ccccc2C(F)(F)F)nn1C`, the “% Inhibition” value is -17% and the Z score was 2.14.
The like results for `CCc1cc(NC(=O)[C@@H](NC(=O)N2CCCC2)C(C)CC)n(C)n1` (stereo partly specified) were, in that order, -1% and 0.25.
As for `CC(=O)N[C@H]1C[C@@H](c2cccc(O)c2)O[C@@H](c2ccc3c(c2)nnn3C)C1`, the “% Inhibition” value is listed as -16% and the Z score was determined as 1.86.
For `CCn1c(C)nnc1CNC(C)C1CCCC(C)C1` (stereo unspecified) the same measures were 5% and -0.98.
For the molecule `Cc1nn(Cc2csc(-c3cccs3)n2)c(N)c1C#N`, the “% Inhibition” value was -6% and the Z score is on record as 0.8.
For `O[C@@H](Cc1nc(-c2ccccn2)no1)c1cccc(F)c1` the same measures were -1% and 0.07.
